In the supplement of paper PMC4604168 (melanoma cell lines):
This is one part of the list. Many values rest on one well or one pass, so single values are uncertain.

Key:
Experiment in all cases: cell count relative to DMSO control; melanoma cells; higher = more viable cells
Conditions in all cases: library dose: standard library concentration; 72 h
[1] = system: SkMel28
[2] = system: SkMel2
[3] = system: SkMel30
[4] = system: SkMel5
[5] = system: UACC257
[6] = system: UACC62
[7] = system: WM115
[8] = system: WM1716
[9] = system: WM3526
[10] = system: WM1745
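Also: cells treated in 1,536-well plates, then fixed and DAPI-stained, with nuclei counted from automated high-throughput microscope images.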

Row | Compound | cell count [1] [%] | cell count [2] [%] | cell count [3] [%] | cell count [4] [%] | cell count [5] [%] | cell count [6] [%] | cell count [7] [%] | cell count [8] [%] | cell count [9] [%] | cell count [10] [%]
1 | CC(C)C[C@H](NC(=O)[C@H](Cc1ccccc1)NC(=O)c1cnccn1)B(O)O [Bortezomib] + Cc1cc(SCc2sc(-c3ccc(C(F)(F)F)c(F)c3)nc2C)ccc1OCC(=O)O [GW0742] (first compound 0.005 µM, partner dose 10 µM) | 25.3 | 34.6 | 25.7 | 29.5 | 73.8 | 62.3 | 26.1 | 15.5 | 25.9 | –
2 | C#Cc1cccc(Nc2ncnc3cc(OCCOC)c(OCCOC)cc23)c1 [erlotinib] + Cc1cc(SCc2sc(-c3ccc(C(F)(F)F)c(F)c3)nc2C)ccc1OCC(=O)O [GW0742] (first compound 4 µM, partner dose 10 µM) | 68.7 | – | 94.1 | 65.9 | 105 | 75.9 | 94.6 | 75.6 | 72.9 | 59.9
3 | Cc1cc(Nc2cc(N3CCN(C)CC3)nc(Sc3ccc(NC(=O)C4CC4)cc3)n2)n[nH]1 [Tozasertib] + Cc1cc(SCc2sc(-c3ccc(C(F)(F)F)c(F)c3)nc2C)ccc1OCC(=O)O [GW0742] (first compound 0.03 µM, partner dose 10 µM) | 68.5 | – | 93.4 | 60.3 | 93.2 | 82.5 | 63.2 | 66.7 | 91.8 | –
